Test results from PubChem BioAssay AID493208 (National Center for Advancing Translational Sciences (NCATS), 2011).
The whole screen tested about 44,000 compounds, of which about 340 (0.77%) were called active. About 5% were inconclusive and are not listed. Calls follow the shape of the dose curve; as a rule, active = well fitted inhibition curve with a large enough effect; inconclusive = small, poorly fitted or top-dose-only effect; inactive = flat fitted curve, though single readings scatter. The list shows a part of the results.

test: Acumen qHTS Assay for Inhibitors of the mTORC1 Signaling Pathway in MEF (Tsc2-/-, p53-/-) Cells: Sytravon; conditions: phospho-rpS6 immunofluorescence/PI, 24 h; series mostly up to 38.3 µM; activity change, negative = inhibition: at the top concentration; also: nearly all actives have a fitted effect of over 50% in size;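 as to activity change, negative = inhibition: plate controls were DMSO for no effect and rapamycin for full effect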
How it was run: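 Cell-based qHTS: Tsc2-/- p53-/- MEF, 24 h cpd, 37 °C; fix/perm, anti-phospho-S6 Alexa-488 + PI; Acumen 488 nm scan; pS6/PI ratio, % positive cells; rapamycin 7.5 nM = inhibition ref; PI count = viability.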
Potency is read from the fitted curve at half-maximal effect.

Activity change, negative = inhibition, inactive:
COc1ccc(N(Cc2cccs2)C(=O)Nc2cccc(Cl)c2)cc1 -9.46%
CCOC(=O)C1CCCN(S(=O)(=O)c2ccc3c(c2)oc(=O)n3C)C1 (configuration not stated) -2.67%
COc1ccc(C2CC(=O)N(CC(=O)Nc3ccc(C)c(Cl)c3)c3ccccc3S2)cc1OC (configuration not stated) -1.87%
COc1ccc(-c2nc(SCC(=O)NC3CCCC3)c(-c3ccc(C)cc3)[nH]2)cc1OC -1.64%
CCOc1ccc(NC(=O)C(=O)NCC(c2cccnc2)N2CCc3ccccc32)cc1 (configuration not stated) 8.71%
Cc1ccccc1NC(=O)CCN1C(=O)c2ccccc2Sc2ncccc21 -5.41%
COc1cccc(NC(=O)CCc2c(C)nc3ncnn3c2C)c1 -7.26%
C#CC(C)(CC)NC(=O)Cn1nnc(-c2ccc(OCc3c(F)cccc3Cl)cc2)n1 (configuration not stated) 1.47%
COc1cc(NC(=O)CN(c2cc(C)cc(C)c2)S(=O)(=O)c2c(C)[nH]c(=O)[nH]c2=O)cc(OC)c1 0.108%
Cc1cn2c(=O)cc(COc3ccc(NC(=O)COc4ccccc4)cc3)nc2s1 -8.36%
Cc1ccc(-n2c(=O)c3ccc(C(=O)NCc4ccccc4Cl)cc3n(CC(=O)Nc3ccc(C)cc3C)c2=O)cc1 -7.62%
Cc1cc(C)cc(C(=O)n2nc(C)c(S(=O)(=O)N3CCOCC3)c2C)c1 -12.7%
O=C(CSc1ncc2c(n1)-c1ccccc1N(Cc1ccc(F)cc1)S2(=O)=O)NCCc1ccccc1 2.92%
CCOC(=O)c1c(NC(=O)c2ccc(F)cc2)sc2c1CCC(CC)C2 (configuration not stated) -5.43%
CCOC(=O)c1cccc(NC(=O)[C@H](CSCc2ccccc2)N2Cc3ccccc3C2=O)c1 1.03%
Cc1ccc(Nc2cc(C)nc3nncn23)c(C)c1 -4.84%
CCOc1ccc(-c2nc3ccccc3c(=O)o2)cc1 4.54%
CN1C(=O)C2(c3ccccc31)N(c1ccc(Br)cc1)C(=O)CS2(=O)=O (configuration not stated) 5.43%
O=C(C1CCC(Cn2c(=O)c3sccc3n(Cc3ccc(F)cc3)c2=O)CC1)N1CCOCC1 (configuration not stated) -0.872%
O=c1[nH]c(C2CCCN(S(=O)(=O)c3ccccc3)C2)nc2c1nnn2Cc1ccc(OC(F)(F)F)cc1 (configuration not stated) -3.29%
CN1C(=O)c2[nH]nc(-c3ccc(F)cc3)c2C1c1cccc(O)c1 (configuration not stated) 2.39%
CC(C)CCn1c(SCc2cccc(F)c2)nc2ccsc2c1=O -3.77%
Cn1cc(-c2cc3n(n2)CCC(=O)N3CCCC(=O)NCc2ccccc2Cl)c2ccccc21 -4.43%
CCc1ccc2oc(C(=O)NCc3ccccc3)cc(=O)c2c1 -10.3%
CCCCOc1ccc(C2C(=O)N(C3CCCCC3)CC(=O)N2CCCC)cc1 (configuration not stated) 9.06%
Cc1cc(C)cc(C(=O)N2CC(=O)Nc3ccc(Br)cc3C2c2ccccc2)c1 (configuration not stated) -2.71%
Cc1ccc(NC(=O)Cn2c(-c3nonc3N)nc3ccccc32)c(Br)c1 3.94%
CCOC(=O)c1noc2ncn(CC(=O)Nc3ccccc3OC)c(=O)c12 -6.68%
COc1cccc(CNC(=O)CCc2c(C)c3ccc(O)c(C)c3oc2=O)c1 -3.39%
Cc1ccc(OCCOCCn2c(-c3ccc(Cl)cc3)nc3ccccc3c2=O)cc1 2.96%
CCCCN(CC)CCCNC(=O)c1ccc2c(c1)NC(=O)CN2C 7.58%
COc1ccc2c(c1)CCc1c(C(=O)Nc3ccc(C#N)cc3)noc1-2 -6.96%
COc1ccc(-n2c(SCc3ccccc3)nc3c([nH]c4ccccc43)c2=O)cc1 1.26%
COc1cccc(CNC(=O)Cn2nc(N3CCN(c4ccccc4OC)CC3)ccc2=O)c1 -9.99%
COc1ccc(C)cc1NC(=O)CN1C(=O)COc2ccc(S(=O)(=O)N3CCC(C)CC3)cc21 -1.34%
Cc1c(Cl)cccc1NC(=O)C(C)n1c(=O)cc(C)c2c(C)nn(-c3ccccc3)c21 (configuration not stated) -1.43%
CCOc1ccc(-n2c(=O)c3c(C)c(C)sc3n(Cc3ccccc3C)c2=O)cc1 2.52%
CCCCc1nnc(SCc2cc(=O)c3cc(F)ccc3[nH]2)n1C 2.84%
COc1ccc(-c2cc(C(F)(F)F)nc(SCCC(=O)Nc3ccc(OC)c(OC)c3)n2)cc1 -18.2%
Cc1ccc(NC(=O)c2sc3nc(-c4cccs4)ccc3c2N)cc1F -0.964%
CCN(CC)C(=O)c1c(NC(=O)c2cccc(C)c2)sc2c1CCC(C)C2 (configuration not stated) -7.63%
CC(C)(C)NC(=O)C1CCN(c2nc3ccccc3nc2C(F)(F)F)CC1 -6.73%
COc1ccc(CNC(=O)CN2C(=O)CC(c3ccc(C)c(C)c3)=Nc3ccccc32)cc1 3.1%
COc1ccc(C(=O)NCCn2cc(SCc3c(F)cccc3Cl)c3ccccc32)cc1 -13.5%
Cc1ccc(-n2ncc3c(NC4CCCCCC4)ncnc32)cc1 13.6%
O=c1[nH]c2cc(Br)ccc2n2cccc12 -6.49%
O=C(c1cnc(N2CCOCC2)c2ccccc12)N1CCN(c2ccccc2)CC1 -4.15%
COc1cc(NC(=O)N2CCc3c(sc4c3CCCC4)C2c2ccccc2)cc(OC)c1OC (configuration not stated) 0%
O=C(CN1C(=O)COc2ccc(S(=O)(=O)NC3CCCC3)cc21)NCc1ccc(Cl)cc1 -0.948%
CCOc1ccc(CNC(=O)CSc2nnc(C)c3c(C)n(-c4ccc(Cl)cc4)nc23)cc1 -0.0425%
CCN(CC)CCSc1c(C(C)C)cnc2c1c(=O)n(C)c(=O)n2C 8%
COc1ccc(OC)c2sc(N3CCN(C(=O)c4ccco4)CC3)nc12 -3.69%
CN1CCN(C(=O)C(=O)Nc2c3c(nn2-c2ccc(Cl)cc2)CSC3)CC1 0.281%
CCOCCCn1c(=N)c(C(=O)NCc2cccnc2)cc2c(=O)n3ccccc3nc21 -11.9%
CCN(CC)C(=O)c1ccc2c(c1)N(Cc1ccc(C(F)(F)F)cc1)C(=O)c1ccccc1S2 2.94%
Cc1ccc(N2C(=O)CCSC23C(=O)N(Cc2ccccc2)c2ccccc23)cc1 (configuration not stated) 3.69%
Cc1nn2c(=O)cc(COC(=O)c3cccc(NC(=O)COc4ccccc4C)c3)nc2s1 0%
Cn1c(=O)c(C(=O)O)nn(-c2ccccc2)c1=O 11.1%
CCC(=O)NCCc1nc2cc(NC(=O)c3cccc(Br)c3)ccc2n1C -11.3%
Cc1ccc(NC(=O)Nc2nnc(N3CCCC3)s2)cc1C 0.0809%
COC(=O)c1ccc(C(=O)OC)c(NC(=O)CN(c2ccccc2)S(=O)(=O)N(C)C)c1 -13%

Potency, active:
Cc1cc(C)c(-c2n[nH]c3c2C(c2ccccc2F)N(Cc2ccco2)C3=O)c(O)c1 (configuration not stated) 13.1 µM
